Here are results for 6 substances from publication PMC3468502.

Chains of the proteins cited; added tags and fusions are not shown.
UniProt Q9H165: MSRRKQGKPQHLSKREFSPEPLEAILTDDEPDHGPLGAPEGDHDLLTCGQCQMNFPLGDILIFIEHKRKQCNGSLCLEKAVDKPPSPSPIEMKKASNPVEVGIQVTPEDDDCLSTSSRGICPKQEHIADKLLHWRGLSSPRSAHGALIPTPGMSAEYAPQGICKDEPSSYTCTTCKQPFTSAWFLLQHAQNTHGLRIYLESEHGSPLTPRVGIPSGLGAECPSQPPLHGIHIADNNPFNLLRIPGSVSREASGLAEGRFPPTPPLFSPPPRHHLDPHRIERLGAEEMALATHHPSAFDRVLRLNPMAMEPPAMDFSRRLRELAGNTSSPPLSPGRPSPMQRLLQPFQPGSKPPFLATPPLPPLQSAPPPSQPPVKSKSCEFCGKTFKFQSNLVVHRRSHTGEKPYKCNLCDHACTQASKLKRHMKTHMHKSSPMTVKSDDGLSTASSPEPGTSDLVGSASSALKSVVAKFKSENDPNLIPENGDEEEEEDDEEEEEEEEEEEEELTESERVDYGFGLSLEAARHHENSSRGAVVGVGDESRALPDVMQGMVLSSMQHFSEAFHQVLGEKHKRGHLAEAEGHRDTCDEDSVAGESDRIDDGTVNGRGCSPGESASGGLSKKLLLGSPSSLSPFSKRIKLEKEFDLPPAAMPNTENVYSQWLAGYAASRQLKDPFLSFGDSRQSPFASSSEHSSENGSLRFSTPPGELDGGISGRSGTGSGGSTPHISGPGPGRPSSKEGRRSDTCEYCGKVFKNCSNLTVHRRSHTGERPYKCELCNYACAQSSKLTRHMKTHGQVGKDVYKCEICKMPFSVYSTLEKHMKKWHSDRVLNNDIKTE
UniProt P23769: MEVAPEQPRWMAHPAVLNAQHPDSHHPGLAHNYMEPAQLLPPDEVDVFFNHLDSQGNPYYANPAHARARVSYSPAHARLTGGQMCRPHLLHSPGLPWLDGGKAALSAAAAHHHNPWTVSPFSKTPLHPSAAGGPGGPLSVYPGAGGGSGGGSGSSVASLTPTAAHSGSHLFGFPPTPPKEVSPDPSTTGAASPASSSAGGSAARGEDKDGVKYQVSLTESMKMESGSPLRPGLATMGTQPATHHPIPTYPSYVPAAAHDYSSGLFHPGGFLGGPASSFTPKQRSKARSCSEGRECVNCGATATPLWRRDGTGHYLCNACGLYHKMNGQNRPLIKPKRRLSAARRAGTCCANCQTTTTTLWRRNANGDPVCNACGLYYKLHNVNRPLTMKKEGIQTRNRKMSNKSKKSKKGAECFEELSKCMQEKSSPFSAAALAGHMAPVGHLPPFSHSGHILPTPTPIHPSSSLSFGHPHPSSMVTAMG
UniProt P23511: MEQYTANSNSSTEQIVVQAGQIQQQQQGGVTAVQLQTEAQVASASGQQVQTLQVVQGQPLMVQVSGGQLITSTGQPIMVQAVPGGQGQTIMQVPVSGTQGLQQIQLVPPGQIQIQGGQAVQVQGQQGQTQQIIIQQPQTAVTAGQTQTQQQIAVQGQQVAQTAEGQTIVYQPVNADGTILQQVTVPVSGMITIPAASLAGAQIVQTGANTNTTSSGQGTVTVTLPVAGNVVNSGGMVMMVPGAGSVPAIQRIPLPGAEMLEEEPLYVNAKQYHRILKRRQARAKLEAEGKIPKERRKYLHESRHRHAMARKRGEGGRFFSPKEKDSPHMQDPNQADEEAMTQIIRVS
UniProt Q92793: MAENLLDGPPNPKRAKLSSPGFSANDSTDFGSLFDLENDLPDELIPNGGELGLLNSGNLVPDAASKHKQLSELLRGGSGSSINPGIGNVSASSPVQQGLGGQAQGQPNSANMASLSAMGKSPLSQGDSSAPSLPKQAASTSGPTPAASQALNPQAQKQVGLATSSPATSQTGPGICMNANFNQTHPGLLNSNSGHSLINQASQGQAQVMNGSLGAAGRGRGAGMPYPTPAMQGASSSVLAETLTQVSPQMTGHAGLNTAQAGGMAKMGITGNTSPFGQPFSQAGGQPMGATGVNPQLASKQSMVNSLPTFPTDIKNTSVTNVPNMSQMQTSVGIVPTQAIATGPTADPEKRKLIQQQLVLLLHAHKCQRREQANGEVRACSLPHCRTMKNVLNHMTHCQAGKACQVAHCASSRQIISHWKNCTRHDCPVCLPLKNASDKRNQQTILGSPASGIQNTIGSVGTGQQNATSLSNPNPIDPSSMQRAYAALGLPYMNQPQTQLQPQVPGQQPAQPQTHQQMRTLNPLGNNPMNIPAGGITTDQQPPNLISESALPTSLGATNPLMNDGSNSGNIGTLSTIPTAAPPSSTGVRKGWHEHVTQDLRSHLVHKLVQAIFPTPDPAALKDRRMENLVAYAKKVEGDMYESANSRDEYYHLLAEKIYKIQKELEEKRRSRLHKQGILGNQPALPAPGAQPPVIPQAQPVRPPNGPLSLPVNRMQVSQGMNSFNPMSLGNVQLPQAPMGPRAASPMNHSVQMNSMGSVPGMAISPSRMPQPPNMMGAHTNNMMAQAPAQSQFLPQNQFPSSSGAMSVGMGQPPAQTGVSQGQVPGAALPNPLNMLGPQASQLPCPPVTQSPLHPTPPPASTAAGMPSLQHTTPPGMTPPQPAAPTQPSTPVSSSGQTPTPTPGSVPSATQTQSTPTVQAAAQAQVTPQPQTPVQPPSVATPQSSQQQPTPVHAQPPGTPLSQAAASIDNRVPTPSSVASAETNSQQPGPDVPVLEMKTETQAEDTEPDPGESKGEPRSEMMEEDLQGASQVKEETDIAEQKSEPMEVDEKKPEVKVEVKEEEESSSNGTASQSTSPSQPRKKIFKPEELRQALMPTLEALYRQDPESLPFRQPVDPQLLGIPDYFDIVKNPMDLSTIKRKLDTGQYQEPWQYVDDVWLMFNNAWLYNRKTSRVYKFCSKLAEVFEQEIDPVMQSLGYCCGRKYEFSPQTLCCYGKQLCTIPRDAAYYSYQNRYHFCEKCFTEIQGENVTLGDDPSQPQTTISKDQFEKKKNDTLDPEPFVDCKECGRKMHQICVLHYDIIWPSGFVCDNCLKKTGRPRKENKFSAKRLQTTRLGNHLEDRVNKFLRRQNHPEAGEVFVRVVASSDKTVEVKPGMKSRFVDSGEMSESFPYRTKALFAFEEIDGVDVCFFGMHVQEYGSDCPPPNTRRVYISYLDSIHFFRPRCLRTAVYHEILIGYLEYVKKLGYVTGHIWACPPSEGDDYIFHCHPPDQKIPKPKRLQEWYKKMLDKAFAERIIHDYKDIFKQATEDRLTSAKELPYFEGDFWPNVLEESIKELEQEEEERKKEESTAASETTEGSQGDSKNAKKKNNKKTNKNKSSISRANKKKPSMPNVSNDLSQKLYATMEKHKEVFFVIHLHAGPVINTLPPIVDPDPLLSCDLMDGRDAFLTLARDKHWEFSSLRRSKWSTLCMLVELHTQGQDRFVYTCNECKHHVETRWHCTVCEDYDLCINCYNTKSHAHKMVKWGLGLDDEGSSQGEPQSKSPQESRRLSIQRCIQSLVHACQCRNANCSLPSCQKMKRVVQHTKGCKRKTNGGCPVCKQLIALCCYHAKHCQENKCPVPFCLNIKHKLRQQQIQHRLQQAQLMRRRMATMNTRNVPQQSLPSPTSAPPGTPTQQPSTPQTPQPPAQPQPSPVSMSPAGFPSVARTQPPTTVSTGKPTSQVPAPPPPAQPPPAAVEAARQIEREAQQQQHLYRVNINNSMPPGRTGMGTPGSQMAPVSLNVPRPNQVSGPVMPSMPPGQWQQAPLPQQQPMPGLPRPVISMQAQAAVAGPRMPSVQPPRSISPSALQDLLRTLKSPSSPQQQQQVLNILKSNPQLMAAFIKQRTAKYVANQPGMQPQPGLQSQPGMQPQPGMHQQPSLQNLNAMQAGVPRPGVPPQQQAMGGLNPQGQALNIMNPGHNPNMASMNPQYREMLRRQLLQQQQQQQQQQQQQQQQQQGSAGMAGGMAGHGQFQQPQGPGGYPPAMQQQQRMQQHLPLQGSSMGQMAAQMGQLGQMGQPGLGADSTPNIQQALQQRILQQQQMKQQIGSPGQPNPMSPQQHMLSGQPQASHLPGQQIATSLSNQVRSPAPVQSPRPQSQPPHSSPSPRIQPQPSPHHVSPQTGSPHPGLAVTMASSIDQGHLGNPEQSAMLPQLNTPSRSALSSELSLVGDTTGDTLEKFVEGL
UniProt P15976: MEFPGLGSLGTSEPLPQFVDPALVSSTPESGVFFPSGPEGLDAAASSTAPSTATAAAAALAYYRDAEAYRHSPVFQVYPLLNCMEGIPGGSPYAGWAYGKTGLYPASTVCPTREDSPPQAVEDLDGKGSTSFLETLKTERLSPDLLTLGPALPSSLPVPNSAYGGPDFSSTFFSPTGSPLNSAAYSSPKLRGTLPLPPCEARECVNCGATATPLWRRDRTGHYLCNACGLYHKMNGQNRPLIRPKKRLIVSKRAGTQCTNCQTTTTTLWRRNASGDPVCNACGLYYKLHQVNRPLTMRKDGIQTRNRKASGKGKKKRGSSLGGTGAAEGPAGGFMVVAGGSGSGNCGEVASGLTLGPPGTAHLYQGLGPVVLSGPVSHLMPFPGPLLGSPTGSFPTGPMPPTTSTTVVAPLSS
UniProt Q13547: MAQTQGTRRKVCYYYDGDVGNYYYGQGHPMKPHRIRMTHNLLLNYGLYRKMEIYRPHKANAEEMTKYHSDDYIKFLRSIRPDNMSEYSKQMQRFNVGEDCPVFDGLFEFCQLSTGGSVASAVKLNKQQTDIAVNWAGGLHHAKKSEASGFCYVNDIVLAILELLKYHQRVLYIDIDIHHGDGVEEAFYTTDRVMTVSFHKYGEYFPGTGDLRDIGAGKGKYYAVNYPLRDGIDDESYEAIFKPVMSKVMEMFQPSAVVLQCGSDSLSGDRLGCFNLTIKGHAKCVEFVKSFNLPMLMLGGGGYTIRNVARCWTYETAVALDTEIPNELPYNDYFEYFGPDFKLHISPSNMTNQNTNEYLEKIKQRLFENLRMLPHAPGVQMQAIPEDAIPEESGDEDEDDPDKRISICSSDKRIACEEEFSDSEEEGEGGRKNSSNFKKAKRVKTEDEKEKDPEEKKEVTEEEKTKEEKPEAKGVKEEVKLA
UniProt P20226: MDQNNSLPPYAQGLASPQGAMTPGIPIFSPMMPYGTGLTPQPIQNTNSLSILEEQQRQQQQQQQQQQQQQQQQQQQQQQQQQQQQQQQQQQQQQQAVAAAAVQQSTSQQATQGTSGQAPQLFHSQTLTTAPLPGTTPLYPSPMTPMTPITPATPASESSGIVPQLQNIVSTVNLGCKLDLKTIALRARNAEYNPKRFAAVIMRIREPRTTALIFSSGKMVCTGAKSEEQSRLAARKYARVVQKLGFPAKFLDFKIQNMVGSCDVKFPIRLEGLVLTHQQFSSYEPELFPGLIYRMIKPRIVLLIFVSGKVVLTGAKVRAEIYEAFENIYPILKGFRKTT

These are yes or no findings as the source states them, for the method shown. For some of these results: In cells and extracts the contact can be indirect. Some entries that bind do so weakly or less than the wild type.

For test [1], the target named is tagged BCL11A-XL expressed from a plasmid transfected into K562 cells (UniProt Q9H165). Put plainly: co-IP; in vivo co-IP: NF-YA, GATA-2, GATA-1 and BCL-XL expressed with different tags from plasmids separately transfected into K562 cells; pulled down by antibodies to the tags; associated proteins detected by Western blot. A general note: A western blot detects proteins with antibodies after separation by electrophoresis.

Test [2] addresses tagged GATA-2 expressed from a plasmid transfected into K562 cells (UniProt P23769). The test is described as above.
The target of test [3] is tagged NF-YA expressed from a plasmid transfected into K562 cells (UniProt P23511). The test is described as above.
The target of test [4] is tagged BCL11A isolated from transfected cells for the in vitro co-IP (UniProt Q9H165). Put plainly: co-IP; in vitro co-IP of individual pairs of differently tagged proteins expressed in and isolated from K562 and/or 293 cells; both purified.

Take “CBP of K562 cells (from UniProt Q92793 1-2442)”: the results for the binding result in test [1], in test [2] and in test [3] were “no binding”, “binds” and “binds”, respectively. “GATA-1 of K562 cells (from UniProt P15976 1-413)”: in test [2], the binding result is on record as “binds”. “GATA-2 of K562 cells (from UniProt P23769 1-480)”: the binding entry in test [3] was “binds”.

For the substance “HDAC1 of K562 cells (from UniProt Q13547 1-482)”, the binding result is “binds” in test [1] and “no binding” in test [3]. Turning to “TBP of K562 cells (from UniProt P20226 1-339)”, the binding entry in test [2] and in test [3] was “binds” each time. For “tagged GATA-1 isolated from transfected cells for the in vitro co-IP (from UniProt P15976 1-413)”, the binding entry in test [4] was “binds”.
